# Experimental data reported in the supplement of paper PMC12632987.
# Whole data set: some 2,300 sequences, median “median log2 fold change of GCK-ALFA target abundance (FLAG IP / Myc IP barcode read proportion)” near 0.095, cut for the lowest 2% near -0.47. This is one part of the list.
# B1: LC3A_free_8_2542 (protein)
# chain: TSEEAVRRVTELLDEAEEEITKKAKELGVDRLDILDLELLLGELKIEVIEAVDKSIEEIREIVEEGLAEIIAKAAEISPELAKLAEEARDEILEELEKLE
# B2: LC3A_free_8_2514 (protein)
# chain: SSKEFAKAAVKILDELEEKIVKLLKEKGKSRLDILEAELLIGSIKAEVISNSDKSPEEQLKIIEEGLKELVEALKELKEEVKKLVEEALKKIKEAKKKLE
# B3: LC3A_17_550 (protein)
# chain: KEEIKEELEKLLKELEALVKELEKYDPEAAKKLEEKLKKAKELLKKGKLEEAAKTLAEAADELANVWDSLEPKYGNKASVLSMEASGLELEAIGLLLKLE
# B4: LC3A_59_2014 (protein)
# chain: MEEVRKWVLEILKKFDNPEEFYEAVKKAVEELRKKYSDEELLKLVEKEAERLIKEGEDPKKMKAIVEAFKAALEIEDEEERKEEIRLILLESEIEEIDEE
# B5: LC3A_3_1499 (protein)
# chain: MEELLEELREVLEELGASEEQIEQALEAAKRILEKGLEETVETLIELFRENRDLSPEKILTTILITEDEVIEKNLDEESAIEYTKKILEDVAEIEEIEEE
# B6: LC3A_28_730 (protein)
# chain: SPLEESLEKALEEAKKAAAEGKQVLIEITVPGDATEEDVEKLIEALEEIAEILSSLENQSILINVEGGVKQEHIDKIADKAEEIEKKYPNVTVIIALDED
# B7: LC3A_free_39_2217 (protein)
# chain: SMEEIEKLIKEIAEEGGIDYEYVKKKIEEIKEVAGLSDEQILELVKAILEAVKAGADAKEILERILKLAKELKEEGKSPEEIAKELLEEIEDFRNLIPLD
# B8: LC3A_3_1829 (protein)
# chain: LDEREARLLAALRAAGHSEETIAAVRETLAALRAKGYYEAAETFIELLEENLDLPSELLLELAEEVKELVETKDLSEEELTEEIRKLARLFRNEAEIEEL
# B9: LC3A_3_1817 (protein)
# chain: LEERVERALELLREAGASEETLKAFREAAEALKERGYEEALKTLIELAERLLDLPSELLLELFEEVLELIKTSDDDEETIKEKIKEIASTIENESEIIEL
# B10: LC3A_147_479 (protein)
# chain: AVVDIDVLVKNEETAEELIKMFEEKKEELEAKGIKVELEIKKEKLDENTWYVEARITIEAETEEEEKAAAQEVVDRFDEFEEKNKDEVLASIISVEFVEK
# B11: LC3A_3_1450 (protein)
# chain: AEEIIEEAEKVLKEFGRSEETIEAARELLEALAEKGYEEAMKTLLEELKKLKDVSSEIILAMLEEIKYIVENEDLSEEEVIEEIKSEAAAAKSEQEIIEL
# B12: LC3A_59_2022 (protein)
# chain: SARLEAARAELRATGPDREALADVIIEHLLEARDDPELLAELEALIAEVLVEKGVLSPELAAEMLAEMRAAVATLADPEEARARMREIFNTALNEEEIIE
# B13: LC3A_28_800 (protein)
# chain: SETRESAEKAREEAERLIAAGEEPVITIEISADATQEELDYVAETIREMARLAKEAGIPKLYVVVDSPDNQEAITKISETEDELRKEGLPVDVIIAIDEP
# B14: LC3A_28_1057 (protein)
# chain: SEVEKEIEEALAKAKELAAKGEEALITIKIKKEDTEEDVEKKLKALKEIAEITKDLPKTDIIVDIDNKNKEEVTKKFAELGDELEKKYPNVTVILALSEE
# B15: LC3A_28_712 (protein)
# chain: GEIEKNIEAALKEAKEAAAKGEEVVVEIKVPGTATEEDIEKVIKALEEIAEILKDLPSAAIVVDVDGGVPQEYIDKIAERAEEIEKKYPNVTVIIALEES
# B16: LC3A_28_754 (protein)
# chain: MDIEEEVEKAIEEARKAVAAGEEAVITITVPAGATEEDVEKVIEGMEEIAEIAKDMKRMTIVVDIEAGVPQEHIDKLIDKGEEIEERYPNVTVIFALDED
# B17: LC3A_16_521 (protein)
# chain: MEELKEKLEILLKASEALDSDFEKFVELLIELDPSRKEEILEASKTPDAKAKLAEIAAEIAEELLEKLKKEGTEEQKQTAENIRDLFETEALLEQVRLEE
# B18: LC3A_3_1544 (protein)
# chain: VEEELEKALKELKEKGASEETLEAFKKAAKALIERGYEEAAKTFIEEMRKLKDAPNEILLDFANDVLELIETSDLNEEELIKKIKEIATIYKNESEIEEL
# B19: LC3A_147_398 (protein)
# chain: ATVVIDIDVLVKEDRSVIEELVEKLKETAEKLGAEVEVEVEIIEEPGEIYARITVKVKTSNDPEKIKEVENALIDTVEEFEEKNKDKVLGSLISIEVIEE
# B20: LC3A_3_1542 (protein)
# chain: LEKELEELLKKLKEAGASEETLKAVKEAFEALKERGYEKAAKTFIEETEKLIDAPSELLLDFAEEVLELVKTSDLDEESLVKEIKAIARTIANESEIIEL
# B21: LC3A_28_1202 (protein)
# chain: SATKAAADAALAEAKALLAAGEEGVVELVVEGKITEEETQYVIDKLEEIAELAAKSGKISIVLDISGEVPEEHQQKLIDKADELEKKYPNVNIIVALEER
# B22: LC3A_free_0_2097 (protein)
# chain: KKVVVEVVAISKKKLKEEDLKKVEEELRKLAERIERERGAKTRVEVSEIDGRNVFTITVEHENWTLDEGLALAREISDFVEETFKSLGAEVTIYESVVVE
# B23: LC3A_free_8_2473 (protein)
# chain: SVQELVDQITALLDELEEKVREKAKELGVDELDILELELEIGSLIADLISASDGTIEEVKEIAEEGLEEIEELAKELSEEIAEIVRETREKILALLEAAE
# B24: LC3A_free_0_2121 (protein)
# chain: KKTVVELVVILDEKTSEEKAKEAYEELKEKAEELAEENGWEVEVKLDKVDGRHIITVTLTSDEPDIDKGLELERKLSEIAEEIAKKLGLDATIYSSVYLE
# B25: LC3A_28_1187 (protein)
# chain: SELEEELKKAIEEAKEKAKKGEPAVITIKVPGDANEEDIERVIETLREIAEILKDIKGSAIIIDLDGGVKQEHQDRLMKEGEEIEKKYPNVTVIFALEER
# B26: LC3A_28_741 (protein)
# chain: SELEENLKKALEEAKKAAKAGESAVITIKIPGTATEEDIEKVIKALKEIAEILKDVKDQAIIIDIDGKLDEKLLTKLADAADEIEKKYPNVTVIIALDEE
# B27: LC3A_45_1974 (protein)
# chain: MKKARITIWVKREYAEEVKEALYKTAEELEKKYGDDLKIDKESMDKSMEETKDEEFVELEVVIEAKTQEILEEAVNAIIDTMDEVGDHKVAMIEVEELPP
# B28: LC3A_3_1610 (protein)
# chain: MEELVEEELERLREAGLSEEVLEKARELLEALAAKGFEEAARTATEELLKLKDLPEELLLAMLEEMLEKVETEDLNEEEVIKFIREEARLARLEAEIEEL
# B29: LC3A_3_1757 (protein)
# chain: GEELIEEARRLLEEHGASEETIEAVERALRALLERGLEEQARRLVEALRRAERLDDELLLAFAEELLALVESHTGSREELAARVEEELRAFEAGAEIEEL
# Biological target: MAP1LC3A, Q9H492
# Assay: median log2 fold change of GCK-ALFA target abundance (FLAG IP / Myc IP barcode read proportion) (log2 ratio); each designed protein is fused to an ALFA-tag nanobody in HEK293 cells to bring the named protein to FLAG-tagged glucokinase (GCK); Myc marks an untargeted standard; higher = target protein stabilised (more abundant)
# Conditions: target protein: 3xFLAG-MCP-GCK-ALFA reporter; HEK293 landing pad (RPLP)
# Method: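 LABEL-seq trans screen in HEK293 landing-pad cells. Each de novo designed 100-aa effector handle, binding the indicated effector (E3 ligase, DUB or autophagy protein), is fused to a constant NbALFA target handle and induced with 2 ug/mL doxycycline. A FLAG-MCP-GCK-ALFA target and a Myc-MCP standard reporter were transfected, and after 48 h circRNA barcodes were recovered by anti-FLAG and anti-Myc IP and sequenced. The value is the median across barcodes (at least 3 per design) of log2(FLAG/Myc read-proportion ratio), with the two transfection replicates pooled. Negative values mean degradation and positive values mean stabilisation of the target.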
row,Binder,median log2 fold change
1,B1,0.036
2,B2,0.302
3,B3,-0.0224
4,B4,0.186
5,B5,0.245
6,B6,0.213
7,B7,-0.012
8,B8,0.354
9,B9,0.312
10,B10,0.117
11,B11,0.0368
12,B12,0.387
13,B13,-0.0317
14,B14,0.481
15,B15,0.081
16,B16,-0.227
17,B17,0.336
18,B18,0.36
19,B19,0.112
20,B20,0.402
21,B21,-0.206
22,B22,-0.0195
23,B23,-0.379
24,B24,0.00278
25,B25,0.0852
26,B26,0.181
27,B27,-0.00291
28,B28,0.142
29,B29,0.287
